According to PubChem BioAssay AID624296 (National Center for Advancing Translational Sciences (NCATS), 2012):
In all, about 350,000 compounds went through this assay and about 9,900 (2.8%) were called active. This list was built around the results that the source calls inconclusive (neither active nor inactive); the mix of calls is not that of the screen. The call rests on the fitted dose curve; in most records, active means well fitted activation curve with a large enough effect; inconclusive means small, poorly fitted or top-dose-only effect; inactive means no such curve, though single readings can be large or run the other way. No potency is given beside an inconclusive call; the fits are too rough.

Experiment: A quantitative high throughput screen for small molecules that induce DNA re-replication in MCF 10a normal breast cells. Further: nearly all actives have a fitted effect of over 50% in size. On activity, positive = re-replication: % of control where 0% means no effect.
Conditions: MCF 10A DNA re-replication, Hoechst nuclear intensity, 48 h; activity, positive = re-replication: at 46.1 µM (top of the series)
Potency means the concentration at half of the fitted maximal effect; tags describe the fitted curve by direction and shape.

Structure (SMILES)	Potency	activity, positive = re-replication
c1ccc2c(c1)oc1c(N3CCOCC3)ncnc12	inactive	–
O=C(c1cc(N2C(=O)C3C4CCC(C4)C3C2=O)ccc1Cl)N1CCN(c2ccc(F)cc2)CC1 (stereo not given)	inconclusive [activator, single point]	–
Cc1ccc(/C=c2\s/c(=C(/C#N)C(=O)N3CCCC3)n(Cc3ccco3)c2=O)s1	inconclusive [activator, single point]	–
Cc1cc(N)cc(C)c1-c1c(Br)cc(N)cc1Br	inconclusive [activator, single point]	–
COc1ccc(-c2sc3cc4c(cc3c2C#Cc2ccc(N)cc2)OCO4)cc1	–	inconclusive: 291% [activator]
CC(Sc1nncn1C)C(=O)Nc1ccc2ccccc2c1 (stereo not given)	inactive	–
CN1CCC(=C2c3ccccc3CC(=O)c3sccc32)CC1	inactive	–
Cc1cccc2cc3c(NC(=O)C(C)C)nn(C)c3nc12	inconclusive [activator, single point]	–
Cc1csc(N/N=C/c2c(F)cccc2Cl)n1	inconclusive [activator, partial curve, poor fit]	–
Cc1ccc(S(=O)(=O)N(C)c2ccccc2)cc1	inactive	–
Cc1ccc(C(=O)CSc2nnc(-c3ccco3)n2CC2CCCO2)cc1 (stereo not given)	inconclusive [activator, single point]	–
COc1ccccc1C/C(N)=N/OC(=O)c1ccc(C)c([N+](=O)[O-])c1	inconclusive [activator, partial curve, poor fit]	–
COC(=O)c1[nH]c2cccc(OC)c2c1NC(=O)CN1CCN(c2cccc(OC)c2)C(C)C1 (stereo not given)	inconclusive [activator, single point]	–
Cc1ccccc1NC(=O)N1CCCC1C(=O)NCc1ccccc1 (stereo not given)	inconclusive [activator, partial curve, poor fit]	–
COc1cc(CC(=O)Nc2nc(-c3ccccc3)c(C(C)=O)s2)cc(OC)c1OC	inconclusive [activator, single point]	–
CC(C)(C)OC(=O)NCc1ccc(CNC(=O)c2[nH]cnc2C(=O)N[C@@H](Cc2ccccc2)C(=O)OCc2ccccc2)cc1	inactive	–
Cc1ccccc1CN1C(=O)c2ccccc2Sc2ccc(C(=O)NCCCN3CCOCC3)cc21	inconclusive [activator, single point]	–
O=C(C1CC1)N1CCN=C1SCc1ccccc1Cl	inconclusive [activator, partial curve, poor fit]	–
COc1ccc(-n2c(-c3ccc(Br)cc3)c[n+]3c2CCCCC3)cc1	inactive	–
CC1CCCN(C(=O)CNC(=O)Cn2ccc3ccccc3c2=O)C1 (stereo not given)	inconclusive [activator, single point]	–
CCCOc1ccc(Cn2ccnc2)cc1[N+](=O)[O-]	inactive	–
COc1ccc(Nc2cc(C)nc(-n3nc(C)cc3C)n2)cc1	active: 2.06 µM	–
COc1ccc(/C=C2/SC(=S)N(CCCC(=O)N3CCN(C)CC3)C2=O)cc1	inconclusive [activator, partial curve]	–
O=C(/C=C/c1ccc(O)c([N+](=O)[O-])c1)c1ccc2ccccc2c1	active: 7.31 µM	–

Structure (SMILES)	Potency	activity, positive = re-replication
CCOC(=O)C1CCN(C(=O)NC23CC4CC(CC(C4)C2)C3)CC1	inactive	–
CCOC(=O)c1oc2c(CN3CCN(C)CC3)c(O)c(CC)cc2c(=O)c1-c1nc2ccccc2s1	inactive	–
Cc1cccc(-c2nc3ccccc3c(=O)n2NC(=O)Cc2ccc(Cl)cc2)c1	inactive	–
Cc1[nH][nH]c(=O)c1C(c1ccc2c(c1)OCO2)c1c(C)[nH][nH]c1=O	–	inconclusive: 42.8% [activator]
COc1ccc(N(CC(=O)NCCC2=CCCCC2)S(=O)(=O)c2ccc(C)cc2)cc1OC	inconclusive [activator, single point]	–
Cc1ccccc1NC(=O)c1ccc(F)c(S(=O)(=O)N2CCN(c3ccccn3)CC2)c1	inactive	–
O=C(c1ccc(Cl)c(S(=O)(=O)N2CCCC2)c1)N1CCN(c2ccc(F)cc2)CC1	inconclusive [activator, single point]	–
CCOC(=O)C1(Cc2ccc(OC)cc2)CCN(C(=O)c2ccc3[nH]ccc3c2)CC1	active: 11.6 µM	–
O=c1nc2ccc(Cl)cn2c2ccc(S(=O)(=O)N3CCOCC3)cc12	inconclusive [activator, single point]	–
COc1ccc(C(=O)c2no[n+]([O-])c2C(=O)c2ccc(OC)cc2)cc1	active: 9.2 µM	–
CCN1CCN(c2ccc(S(=O)(=O)N3CCCCC3)cc2NC(=O)c2ccc([N+](=O)[O-])o2)CC1	inconclusive [activator, partial curve, poor fit]	–
CCOc1ccc(C(=O)N2CCc3ccccc32)cc1OCC	inconclusive [activator, partial curve, poor fit]	–
CCOC(=O)C1(Cc2cccc(OC)c2)CCCN(C(=O)c2cc(C)oc2C)C1 (stereo not given)	inconclusive [activator, single point]	–
C/C(=N\NC(=O)c1ccccc1F)c1ccc2c(c1)Nc1ccccc1S2	inactive	–
Cc1ccnc(NC(=O)CCC(=O)N(CC(=O)NCCc2ccccc2)Cc2cccs2)c1	inconclusive [activator, single point]	–
Cc1ccc(C(C)C)c(OCCNC(=O)c2ccccc2O)c1	inconclusive [activator, single point]	–
COc1ccc(CNC(=O)c2ccccc2SC)cc1	inactive	–
CCc1ccccc1NC(=O)CN1CCN(CC(=O)Nc2ccc(-c3ccccc3)cc2)CC1	inconclusive [activator, full curve, poor fit]	–
CC(=O)N(Cc1ccc(Br)cc1)c1cccc(C)c1C	inconclusive [activator, single point]	–
CCCC1=Nc2cc(C(=O)NCCN3CCCC3)ccc2Sc2ccccc21	inconclusive [activator, partial curve, poor fit]	–
O=C(COC(=O)c1cc(S(=O)(=O)N2CCOCC2)c(Cl)cc1Cl)NC1CC1	inactive	–
Cc1c(NC(=O)c2ccc(S(=O)(=O)Nc3ccccc3F)cc2)c(=O)n(-c2ccccc2)n1C	inactive	–
Oc1ccc(CCNc2ncnc3ccc(Cl)cc23)cc1	active: 8.2 µM	–
Cc1cc2oc3c(c(=O)c2cc1C)C(c1cccc(Br)c1)N(Cc1ccco1)C3=O (stereo not given)	active: 10 µM	–

Structure (SMILES)	Potency	activity, positive = re-replication
C=CCNC(=O)c1onc(CSc2ccc(F)c(F)c2)c1C(=O)NCC=C	inconclusive [activator, single point]	–
Cc1cccc(-c2sc(Nc3ccccc3)n[n+]2-c2ccc(F)cc2)c1	inactive	–
O=C(N/N=C/c1cccc([N+](=O)[O-])c1)c1cc[n+](CCO)cc1	inactive	–
O=C(COc1cccc2ccccc12)N/N=C/c1ccccc1OCc1ccc(C(=O)O)cc1	inconclusive [activator, partial curve, poor fit]	–
CC(C)(C)c1ccc(OC(=O)Nc2ccc(O)c(C(=O)O)c2)cc1	inactive	–
Nc1nc2ccccc2n1C(=O)CCc1ccccc1	inconclusive [activator, partial curve, poor fit]	–
CCN(CC)S(=O)(=O)c1ccc(N2CCN(C)CC2)c(NC(=O)COc2ccc(F)cc2Cl)c1	inconclusive [activator, partial curve, poor fit]	–
CCN(c1ccc(OC)cc1)S(=O)(=O)c1cc(-c2cc(C)no2)ccc1C(C)C	active: 10.3 µM	–
CCCN1CCC(=O)N([C@H](CSc2ccc(OC)cc2)Cc2ccccc2)CC1	inactive	–
CCC(C)N1CCN(S(=O)(=O)c2ccc3ccccc3c2)CC1 (stereo not given)	inconclusive [activator, partial curve, poor fit]	–
c1ccc(CNC2CC3CCC2C3)cc1 (stereo not given)	inactive	–
CCOC(=O)C1=CN(Cc2cccc(F)c2)S(=O)(=O)NC1c1ccc(Br)cc1F (stereo not given)	inconclusive [activator, single point]	–
CCCCCCCCCCCCCCCC[n+]1ccc(/C=N/O)cc1	active: 2.59 µM	–
CCOc1ccc2c(c1)OC(c1ccc(C)cc1)(C(F)(F)F)NC2=O (stereo not given)	active: 1.46 µM	–
Cc1cc(NC(=O)CSCC(=O)N2CCN(c3cccc(C)c3C)CC2)no1	inactive	–
C=C(c1ccc(O)cc1)c1ccc(O)cc1	inconclusive [activator, single point]	–
Cc1cccc(Cc2c(C)nc3c(C(=O)N4CCN(Cc5ccc6c(c5)OCO6)CC4)cnn3c2C)c1	inconclusive [activator, single point]	–
CC(O)Cc1cn(CC(=O)N2CCN(C(=O)OC(C)(C)C)CC2)nn1 (stereo not given)	inconclusive [activator, partial curve, poor fit]	–
COc1cc(/C=N/NC(=O)c2ccc(CSc3nc4ccccc4[nH]3)cc2)cc(OC)c1OC	inconclusive [activator, partial curve]	–
Fc1ccc2cnc(-c3ccccc3)c(-c3cccc(C(F)(F)F)c3)c2c1	inconclusive [activator, single point]	–
COc1cccc(/C=N/NC(=O)c2[nH]nc3c2CCc2ccccc2-3)c1O	inconclusive [activator, single point]	–
O=C(N/N=C/c1ccc([N+](=O)[O-])o1)c1ccccc1-n1cccc1	active: 23.1 µM	–
